# Measurements published in PubChem BioAssay AID463173 (ICCB-Longwood Screening Facility, Harvard Medical School, 2010).
# Among all 52,000 compounds or so, about 4,300 (8.3%) were called active. Rule as the data show it: active = survival mostly below about 52% (no sharp cut-off); inactive = mostly above about 56%. This is one part of the list.
# System: DeltatarO mutant
# Assay: growth inhibition of S. aureus wild type versus tarO mutant, primary screen, teichoic acid synthesis inhibitors, RN4220, OD600 (AID 463173)
# Conditions: OD600, 18 h, stronger effect = lower value, screened at 18.75 µg/mL (by protocol)
row,Structure (SMILES),survival
1,COC(=O)CCC(=O)Nc1cccc2ccccc12,inactive: 103%
2,N#Cc1ccc(OC(=O)c2cc(-c3ccc(Cl)cc3)on2)cc1,inactive: 89%
3,O=C(CCC1N=C2c3ccccc3N=C(SCC(=O)Nc3ccccc3F)N2C1=O)NCc1ccco1 (stereo unspecified),inactive: 102%
4,Nc1ccc2nc(C(F)(F)F)[nH]c2c1,inactive: 95%
5,Cc1ccc(NC(=O)CN(C)S(=O)(=O)c2ccc3c(c2)n(C)c(=O)c(=O)n3C)c(C)c1,inactive: 82%
6,COc1ccc(OC)c(NC(=O)CCNS(=O)(=O)c2cccc3nsnc23)c1,inactive: 49%
7,COc1ccccc1CNc1ccc(-c2nc(-c3ccccn3)no2)cc1[N+](=O)[O-],active: 43%
8,CCc1ccc(NC(=O)CSc2nc3n[nH]c(C)c3c(=N)n2-c2ccc(C)cc2)cc1,inactive: 134%
9,COc1cc(Cl)c(C)cc1NC(=O)Cn1cc(S(=O)(=O)N2CCN(c3ccccc3F)CC2)c2ccccc2c1=O,inactive: 86%
10,Cc1cccc(CCNC(=O)C2CCC(CNS(=O)(=O)c3c(C)cc(C)cc3C)CC2)c1 (stereo unspecified),inactive: 72%
11,O=C(Cc1ccc(NC(=O)N2CCCCc3ccccc32)cc1)NCc1ccccc1Br,inactive: 88%
12,Cc1oc(-c2ccccc2)nc1Cn1c(SCc2cccc(C(F)(F)F)c2)nc2cccnc21,inactive: 75%
13,CCc1ccccc1Nc1nn2c(=O)c3ccc(C(=O)NC4CCC(C)CC4)cc3nc2s1 (stereo unspecified),inactive: 95%
14,CC(=O)Nc1ccc(S(=O)(=O)NCc2ccc3c(c2)CCN3C(C)=O)cc1,inactive: 89%
15,COc1ccc(-n2ncc(C(=O)N3CCN(Cc4ccccc4)CC3)c2C2CCN(C(=O)OC(C)(C)C)CC2)cc1,inactive: 90%
16,CCOc1cc(C(=O)N(Cc2nc(-c3ccc(C)cc3)no2)C(C)C)cc(OCC)c1OCC,active: 50%
17,COc1cc(NC(=O)c2ccco2)c(OC)cc1NC(=O)CCC(=O)NC1CCN(Cc2ccccc2)CC1,inactive: 78%
18,CCc1cnc2c(c1SCc1c(F)cccc1Cl)c(=O)n(C)c(=O)n2C,inactive: 87%
19,O=C(NCC1CCCO1)C12CC3CC(CC(C3)C1)C2 (stereo unspecified),inactive: 109%
20,Cc1nn(C(=O)COc2ccc(Cl)cc2)c(C)c1Sc1ccccc1,inactive: 87%
21,NC(=O)Cn1nnc(-c2ccccc2N)n1,inactive: 99%
22,CCOC(=O)c1ccc(NC(=O)CC2C(=O)N(c3ccccc3)C(=O)N2Cc2ccc(C)cc2)cc1 (stereo unspecified),inactive: 63%
23,COc1ccc(CCNC(=O)CCCn2c(=O)c3ccccc3n(CC(=O)Nc3cccc(C)c3)c2=O)cc1OC,inactive: 83%

row,Structure (SMILES),survival
1,CCOC(=O)c1c(NC(=O)c2ccc(S(=O)(=O)N3CCC(C)CC3)cc2)sc2c1CCN(C(C)C)C2,inactive: 93%
2,CCc1ccc(CN2C(=O)c3ccccc3C2C(=O)NC2CCCCCC2)cc1 (stereo unspecified),inactive: 75%
3,CC(C)(C)C(=O)Nc1ccc(-c2nc3ccccc3s2)cc1,inactive: 71%
4,CCC1C(=O)NN=C1C (stereo unspecified),inactive: 99%
5,Cc1ccc(C)c(NC(=O)c2cc(S(=O)(=O)NCCc3ccccc3)ccc2F)c1,inactive: 91%
6,COc1ccc(NC(=O)C2CCN(S(=O)(=O)c3cc(-c4noc(C)n4)ccc3C)CC2)cc1,inactive: 108%
7,Cc1cccc(NC(=O)CN2C(=O)CCn3nc(-c4cccn4C)cc32)c1C,inactive: 84%
8,Cc1noc(/C=C/c2ccccc2F)c1S(=O)(=O)N1CCC(C(=O)Nc2ccc(C#N)cc2)CC1,inactive: 95%
9,CCCCNC(=O)CCn1c(=O)c2ccccc2n(Cc2cccc(Cl)c2)c1=O,inactive: 80%
10,CCOC(=O)C1CCCN(C(=O)c2ccc3c(c2)N(Cc2ccc(Cl)cc2)C(=O)c2ccccc2S3=O)C1 (stereo unspecified),inactive: 60%
11,Cc1ccc(-c2csc3nnc(SCC(N)=O)n23)cc1,inactive: 101%
12,O=S(=O)(NCc1ccncc1)c1ccc(C2CCCCC2)cc1,inactive: 79%
13,CC(C)Sc1ncnc2c1cnn2-c1ccccc1,inactive: 90%
14,CN(C(=O)CSc1nc2ccccc2n1CC(=O)N(C)C1CCCCC1)c1ccccc1,inactive: 94%
15,Cc1ccc2c(CNC3CCCC3)c(C(=O)O)n(Cc3ccc(F)cc3)c2c1,inactive: 103%
16,NC(=O)c1ccccc1NS(=O)(=O)c1ccccc1,inactive: 97%
17,O=C(Cn1c(=O)c2ccccc2n2nncc12)Nc1cccc(F)c1,inactive: 85%
18,O=C(NCc1nc2ccccc2[nH]1)c1cccc(Cl)c1,inactive: 63%
19,CCOC(=O)c1c(C)[nH]c(C)c1S(=O)(=O)N(C)CC(=O)NCc1cccc(Br)c1,inactive: 88%
20,COc1ccc(NC(=O)NCCn2nnc3cc(S(=O)(=O)N(C)C)ccc32)cc1,inactive: 80%
21,COCCOC(=O)C1=C(C)OC(N)=C(C#N)C1c1cc2cc3c(cc2nc1Cl)OCO3 (stereo unspecified),inactive: 87%
22,CC1CCN(c2ccc(-c3nc(-c4ccccc4)no3)cc2[N+](=O)[O-])CC1,inactive: 102%
23,CCc1cccc(C)c1NC(=O)CCCN1C(=O)C(c2ccccc2)Oc2cccnc21 (stereo unspecified),inactive: 83%

row,Structure (SMILES),survival
1,Cc1ccccc1Cn1cnc2nc3c(cc2c1=O)CC(C)CC3 (stereo unspecified),active: 8%
2,O=C1OCC2=C1C(c1ccc3c(c1)OCO3)Sc1ccccc1N2 (stereo unspecified),inactive: 96%
3,Cc1cc(N2CCCCC2)nc2ccc(NC(=O)/C=C/c3ccc(OCCC(C)C)cc3)cc12,inactive: 56%
4,CCc1cccc(C)c1NC(=O)CCCn1nc(C)c2sc3ccccc3c2c1=O,inactive: 86%
5,O=C(CSc1nc2ccsc2c(=O)n1-c1ccc(Br)cc1)NCc1ccccc1,inactive: 73%
6,O=C(C1CCN(S(=O)(=O)Cc2ccccc2)CC1)N1CCCc2ccccc21,inactive: 88%
7,Cc1ccccc1C(=O)N1CCC(N2CCN(Cc3ccc(F)cc3)C(=O)C2=O)CC1,inactive: 112%
8,O=C(Nc1cccc(C(F)(F)F)c1)Nc1cccs1,active: -3%
9,O=C(CSc1nnc2scc(-c3ccccc3)n12)Nc1ccc(Cl)cc1,inactive: 56%
10,CCOC(=O)c1ccc(NC(=O)c2ccc(CN3C(=O)CCn4nc(C)cc43)cc2)cc1,inactive: 113%
11,CCCCN(CC)C(=O)C1CCCN(c2ncnc3c2nc2n3CCCCC2)C1 (stereo unspecified),inactive: 77%
12,CCOc1ccc(CNC(=O)CCn2c(=O)c3cccn3c3ccc(F)cc32)cc1,active: 45%
13,O=C(CSCc1cnn(-c2ccccc2)c1-n1cccc1)NCc1ccc(F)cc1,inactive: 58%
14,CCc1ccc(NC(=O)CSc2ccc(-c3cccs3)nn2)cc1,inactive: 72%
15,Oc1c(C(c2ccccc2Cl)N2CCN(Cc3ccccc3)CC2)sc2nc(-c3ccco3)nn12 (stereo unspecified),inactive: 78%
16,Cc1noc(Cn2c(=O)c3cc4c(cc3n(CC(=O)Nc3ccccc3F)c2=O)OCO4)n1,inactive: 77%
17,CCOc1ccc2nc(N3CCC(C(=O)Nc4cc(C)ccc4C)CC3)sc2c1,inactive: 73%
18,Cc1ccc(Cl)cc1NC(=O)CCn1c(=O)c2cccn2c2cccnc21,inactive: 78%
19,COc1ccc(NC(=O)CSc2nc(-c3cccs3)cc(C(F)(F)F)n2)c(OC)c1,inactive: 57%
20,O=C(NC1CCCCC1)c1ccc(CSc2nc3ccncc3n2Cc2ccccc2F)cc1,inactive: 65%
21,Cc1ccc(NC(=O)Cn2cc3c(n2)CCCC3)c(C)c1,inactive: 101%
22,S=C(Nc1ccccc1)Nn1cnnc1,inactive: 71%
23,COCCCNC(=O)c1ccc2c(c1)nc1n2CCCCC1,inactive: 89%

row,Structure (SMILES),survival
1,Cc1ccccc1C(=O)Nc1nc(-c2ccc(Br)cc2)ns1,inactive: 49%
2,Cc1ccc(NC(=O)CNCc2ccco2)cc1Cl,inactive: 99%
3,CC(C)NC(=O)C1CCC(Cn2c(=O)c3sccc3n(CC(=O)Nc3ccccc3)c2=O)CC1 (stereo unspecified),inactive: 74%
4,CC(=O)c1cc(-c2ccccc2)n(CC(=O)NCCc2ccc(C)cc2)c1C,inactive: 78%
5,CC(C)Oc1ccc(CNC(=O)C2CCN(C(=O)N3CC(C)Oc4ccccc43)CC2)cc1 (stereo unspecified),inactive: 73%
6,CCOC(=O)c1ccc(CN(Cc2ccccc2)S(=O)(=O)c2ccc(Cl)cc2)cc1,active: 32%
7,FC(F)(F)c1cc(-c2cccc(Br)c2)nc2ncnn12,inactive: 120%
8,CCOC(=O)C1CCC(CN(Cc2ccc(OC)cc2)S(=O)(=O)c2ccc(F)c(C(=O)Nc3cc(C)ccc3C)c2)CC1 (stereo unspecified),inactive: 75%
9,CCOC(=O)c1cnc2ccc(OCC)cc2c1N1CCN(c2ccccc2F)CC1,active: 0%
10,CCOc1ccc(NC(=O)c2ccc3snnc3c2)cc1,inactive: 111%
11,Cc1nc(N2CCCC2)c2c(C(=O)Nc3ccc(Br)cc3F)c(C)oc2n1,active: 25%
12,CCOC(=O)c1c(NC(=O)COc2cc(C)ccc2C(C)C)sc2c1CCCC2,inactive: 50%
13,Cc1c(C=Nc2ccc(SC#N)c(Cl)c2)c(O)[nH]c(=O)c1C#N,inactive: 68%
14,Cc1cccc(NC(=O)c2c(NC(=O)c3cccs3)sc3c2CCC(C)C3)c1 (stereo unspecified),inactive: 60%
15,COc1cccc(CN2CCc3nc(Nc4ccc5c(c4)OCCO5)ncc3C2)c1OC,inactive: 75%
16,COc1ccccc1N1CCN(C(CNC(=O)C(=O)NCCN(C)C)c2cccnc2)CC1 (stereo unspecified),inactive: 69%
17,S=C(NCc1ccco1)Nc1ccccc1,inactive: 108%
18,COc1ccc(OCCn2cnc3ccccc32)cc1,inactive: 85%
19,CCCOc1ccc(C2C(=O)N(C3CCCCC3)CC(=O)N2CCc2ccccc2)cc1OC (stereo unspecified),inactive: 86%
20,Clc1cccc(-n2ncc3c(NCCc4ccccc4)ncnc32)c1,inactive: 94%
21,CCOC(=O)c1cccc(NS(=O)(=O)c2cc(-c3cnc(C)o3)ccc2OC)c1,inactive: 94%
22,CN(C)C(=O)c1ccc(NC(=O)Cn2nc(-c3ccccc3)c3ccccc3c2=O)cc1,active: 39%
